Assay results taken from PubChem BioAssay AID1347120 (National Center for Advancing Translational Sciences (NCATS), 2019).
In all, about 390,000 compounds went through this assay and about 930 (0.24%) were called active. The inconclusive results got no clear call from the source; some entries with a clear call stand among them for comparison. Calls come from the whole dose curve; as a rule, active = well fitted activation curve with a large enough effect; inconclusive = small, poorly fitted or top-dose-only effect; inactive = no such curve, though single readings can be large or run the other way. Where the call is inconclusive, the potency comes from a doubtful curve fit.
Potency is the fitted concentration of half-maximal effect; tags give direction and shape of the fitted curve.

Assay: qHTS for Suppressors of FUS Proteinopathy: Primary screen using FUS-linked yeast assay; note: nearly all actives have a fitted effect of over 55% in size;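 for growth rescue (activation): plate controls were DMSO vehicle for no effect and reference control for full effect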
Conditions: S. cerevisiae FUS-expressing, OD600, 24 h; Potency: growth rescue; growth rescue (activation): at 76.6 µM (top of the series)
Procedure, shortened: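 FUS-expressing yeast, raffinose-pregrown, induced in 2% galactose minimal medium at OD 0.005; compounds in a dilution series, 24hr at 30C. Growth restoration read as absorbance at 600 nm. CP55940 positive control, DMSO negative.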
In the case of COc1ccc(-c2cn3nc(N4CCC(C(=O)Nc5cccc(Cl)c5)CC4)sc3n2)cc1, the “growth rescue (activation)” value is reported as inactive: -13.1%.
With Cc1ccc(NC(=O)Nc2nnc(N3CCCC3)s2)c(C)c1 the “growth rescue (activation)” value was inactive: -22%.
In the case of CCOC(=O)NNc1ccc2nonc2c1[N+](=O)[O-], the Potency is reported as inconclusive: 28.2 µM [activator, partial curve, poor fit].
For O=C(CSCC(=O)N1CCCCC1)Nc1nc(-c2cccs2)cs1, the “growth rescue (activation)” value was inactive: 27.8%.
For COc1cc(NC2CCCCC2O)c2nc(-c3ccc(Cl)cc3)ccc2c1 (configuration not stated), the Potency was inconclusive: 44.7 µM [activator, single point].
For CN(C)c1ccc(CNC(=O)c2cc3cc(S(=O)(=O)N4CCCCC4)ccc3n2C)cc1, the Potency was active: 8.91 µM.
In the case of O=C(CN1C(=O)C2CCCCN2c2ccc(C(=O)N3CCCC3)cc21)NCc1cccc(Cl)c1 (configuration not stated), the “growth rescue (activation)” value is reported as inactive: 27.4%.
With Cc1cccc(N(Cc2ccccc2)C(=O)c2cc(S(=O)(=O)N3CCOCC3)ccc2Cl)c1 the Potency was inconclusive: 50.1 µM [activator, single point].
In the case of CNC(=O)c1cccnc1Nc1cccc(C(F)(F)F)c1, the “growth rescue (activation)” value is reported as inactive: 43.7%.
In the case of O=C(COc1ccc2cc(Br)ccc2c1Br)N1CCOCC1, the Potency is reported as inconclusive: 50.1 µM [activator, single point].
With Cc1ccc(C(C)C)c(OCCCN2C(=O)NC(C)(C)C2=O)c1 the growth rescue (activation) was inconclusive: 80.2% [activator].
For CCn1ccc2cc(S(=O)(=O)N3CCCN(C(=O)NCC(C)C)CC3)ccc21, the “growth rescue (activation)” value was inactive: 12.8%.
In the case of O=C(CCc1ccccc1F)N1CCN(c2ccc(C(F)(F)F)cn2)CC1, the Potency is reported as inconclusive: 3.55 µM [activator, full curve].
With Cc1n[nH]c(C)c1S(=O)(=O)NCCc1cccc(F)c1 the “growth rescue (activation)” value was inactive: -0.508%.
In the case of Cc1ccc(C(=O)Nc2cccc(S(=O)(=O)N3CCCCC3)c2)cc1S(=O)(=O)N1CCOCC1, the Potency is reported as inconclusive: 20 µM [activator, single point].
In the case of COCCN=c1scc(-c2ccc3c(c2)NC(=O)CO3)n1/N=C(\C)c1ccc(O)cc1, the Potency is reported as inconclusive: 35.5 µM [activator, single point].
With OCC1(Cc2ccccc2)CCCN(Cc2ccc(-c3ccco3)cc2)C1 (configuration not stated) the Potency was inconclusive: 3.98 µM [activator, partial curve, poor fit].
For O=S(=O)(c1ccc2c(c1)N(Cc1ccc(Cl)cc1)C1CCCN21)N1CCOCC1 (configuration not stated), the Potency was inconclusive: 50.1 µM [activator, single point].
In the case of Cc1c(N=Cc2c(O)n(Cc3ccco3)c(=O)c3ccccc23)c(=O)n(-c2ccccc2)n1C, the Potency is reported as inconclusive: 39.8 µM [activator, single point].
In the case of O=C(CCc1ccccc1)NC(=S)Nc1ccccc1[N+](=O)[O-], the “growth rescue (activation)” value is reported as inactive: 21.1%.
In the case of Cc1ccc(C)c(Cn2c(=O)n(CCCCC(=O)NCc3ccccc3Cl)c(=O)c3ccccc32)c1, the “growth rescue (activation)” value is reported as inactive: -17.4%.
With Cc1cccc(C2CC(c3ccccc3)=NN2c2ccc(S(N)(=O)=O)cc2)c1 (configuration not stated) the Potency was inconclusive: 50.1 µM [activator, single point].
With Cc1oc(C)c2c(=O)cc(-c3ccc4c(c3)OCO4)cc(OC(=O)c3ccccc3Br)c12 the Potency was inconclusive: 14.1 µM [activator, partial curve, poor fit].
In the case of COc1ccc(-c2[nH]c(-c3cc(OC)c4c(c3)OCO4)nc2-c2ccccc2)cc1, the Potency is reported as inconclusive: 25.1 µM [activator, single point].
In the case of COC(=O)C1=C(C)N(Cc2ccccc2)C(=S)N[C@H]1c1cccc(F)c1, the Potency is reported as inconclusive: 28.2 µM [activator, partial curve, poor fit].
For Cc1ccc(NC(=O)C(NS(=O)(=O)c2ccc3c(c2)CCC(=O)N3)c2ccccc2)cc1C (configuration not stated), the Potency was inconclusive: 39.8 µM [activator, single point].
For O=C(NCc1ccc2c(c1)OCO2)c1cnc2ccccn2c1=O, the “growth rescue (activation)” value was inactive: 14.5%.
For CCCCOC(=O)c1ccc(NC(=O)c2cc3c(=O)n4cccc(C)c4nc3n2C)cc1, the “growth rescue (activation)” value was inactive: -22.7%.
In the case of O=C1CCCC2=C1C(c1ccc(Br)cc1)c1c([nH]c(=S)[nH]c1=O)N2 (configuration not stated), the Potency is reported as inconclusive: 22.4 µM [activator, partial curve, poor fit].
In the case of Cc1ccc(NC(=O)Cn2c(=O)n(CCCCC(=O)NCCc3ccccc3)c(=O)c3ccccc32)c(C)c1, the “growth rescue (activation)” value is reported as inactive: -24.6%.
For Cc1cc2cc(CN(CCN(C)C)C(=S)NCc3ccco3)c(=O)[nH]c2cc1C, the Potency was inconclusive: 8.91 µM [activator, partial curve, poor fit].
In the case of CN(C(=O)COC(=O)c1ccc2c(c1)OCO2)C1CCS(=O)(=O)C1 (configuration not stated), the Potency is reported as inconclusive: 4.47 µM [activator, full curve].
In the case of C[C@@H](NC(=O)c1ccc(C#Cc2cccc(F)c2)cn1)C(C)(C)O, the “growth rescue (activation)” value is reported as inactive: 10.3%.
For Cc1cc2nnc(SC(C)C)n2c2ccccc12, the “growth rescue (activation)” value was inactive: 25.7%.
For C=CC[C@@H](CC(=O)N[C@@H](CO)Cc1ccccc1)C(=O)NCCOC(=O)[C@@H](CC=C)CC(=O)OC(C)(C)C, the Potency was inconclusive: 8.91 µM [activator, full curve].
For Cc1nc(C)c(C(=O)Nc2cccc(C)c2C)s1, the “growth rescue (activation)” value was inactive: -10.8%.
For Cc1ccccc1-c1ccc(CN2C(C(C)C)C(=O)N(Cc3cn(CCC4OCCO4)nn3)CCS2(=O)=O)cc1 (configuration not stated), the Potency was active: 10 µM.
For O=C1N[C@@H](c2ccccc2)COC(=O)[C@H](Cc2ccc(F)cc2)CC/C=C/C[C@H]1CC(=O)N(CCO)Cc1ccccc1, the Potency was inconclusive: 15.8 µM [activator, partial curve, poor fit].
For COc1cc(OC)cc(C(=O)Nc2ccc(Nc3ccccc3)cc2)c1, the Potency was active: 25.1 µM.
In the case of CSc1nc2ccccc2n1CC(=O)Nc1cc(C(F)(F)F)ccc1N1CCOCC1, the “growth rescue (activation)” value is reported as inactive: 32.2%.
For c1ccc(Cn2nnc3c(N4CCCC4)ncnc32)cc1, the growth rescue (activation) was inconclusive: 65.5% [activator].
In the case of CO[C@H]1CC[C@@]2(C)[C@@H](CC[C@@H]3[C@@H]2CC[C@@]2(C)[C@H]3C[C@H](C(=O)O)O[C@]23CCCO3)C1, the “growth rescue (activation)” value is reported as inactive: 2.35%.
With CC(=O)COc1cc(C)cc2oc(=O)c(C)c(C)c12 the “growth rescue (activation)” value was inactive: 7.37%.
In the case of Cc1nc2nc(SCC(=O)NCCc3ccccc3)nn2c(C)c1Cc1c(F)cccc1Cl, the Potency is reported as inconclusive: 28.2 µM [activator, single point].
In the case of CC(C)c1ccc(S(=O)(=O)/N=C2/C=C(Sc3ncn[nH]3)C(=O)c3ccccc32)cc1, the Potency is reported as inconclusive: 22.4 µM [activator, single point].
In the case of Cc1ccc(C(C)C)c(OCC(=O)N2CCC(c3nc4ccccc4o3)CC2)c1, the Potency is reported as inconclusive: 25.1 µM [activator, partial curve, poor fit].
With Cc1c(CC(=O)N2CCC(C(=O)O)CC2)c(=O)oc2cc3c(cc12)CCC1(CCCCC1)O3 the “growth rescue (activation)” value was inactive: 43.2%.
With COc1ccccc1CNC(=O)C1CCCN(c2nnc(-n3c(C)ccc3C)s2)C1 (configuration not stated) the “growth rescue (activation)” value was inactive: 36.7%.
In the case of Cn1cc(Cl)c(/C(N)=N/OC(=O)c2ccccc2C(F)(F)F)n1, the “growth rescue (activation)” value is reported as inactive: 5.65%.
For Cc1ccccc1NC(=O)[C@H]1CC(=O)O[C@@H]1c1ccccc1, the “growth rescue (activation)” value was inactive: -11.2%.
For C[C@@H]1CCCCO[C@@H](CN(C)C(=O)C2CCCCC2)[C@@H](C)CN([C@H](C)CO)C(=O)c2cc(NC(=O)NC3CCCCC3)ccc2O1, the Potency was inconclusive: 25.1 µM [activator, partial curve, poor fit].
In the case of O=C(Nc1ccc(Oc2ccccc2)cc1)c1ccc(Cn2c(=O)[nH]c3ccsc3c2=O)cc1, the “growth rescue (activation)” value is reported as inactive: 16.7%.
For O=C(Nc1c(C(=O)Nc2ccc(F)cc2)oc2ccccc12)c1ccccc1F, the “growth rescue (activation)” value was inactive: -19.7%.
In the case of COc1cccc(OCCOc2cccc(/C=N/n3cnnc3)c2)c1, the Potency is reported as inconclusive: 31.6 µM [activator, single point].
With COCCCN(C(=S)NC(=O)c1ccc(Br)cc1)c1c(N)n(Cc2ccccc2)c(=O)[nH]c1=O the Potency was inconclusive: 35.5 µM [activator, single point].
With Cc1cc(C)cc(Nc2nc(-c3ccc(S(=O)(=O)N4CCCC4)cc3)cs2)c1 the Potency was inconclusive: 14.1 µM [activator, partial curve, poor fit].
In the case of Cc1ccc(OCC(=O)Nc2ccc(Cl)c(-c3nc4ncccc4o3)c2)c(C)c1, the “growth rescue (activation)” value is reported as inactive: 30.4%.
In the case of Cc1ccc(C)c(C(=O)c2c(N)c(-c3nc(-c4ccc5c(c4)OCO5)cs3)c3ccccn23)c1, the “growth rescue (activation)” value is reported as inactive: 0.537%.
With COc1ccccc1Nc1nnc(SCC(=O)c2cc(C)n(CC3CCCO3)c2C)s1 (configuration not stated) the Potency was inconclusive: 39.8 µM [activator, partial curve, poor fit].
With CCN(CC)C(=O)c1cnn(-c2ccccc2)c1NC(=O)c1ccco1 the growth rescue (activation) was inconclusive: 101% [activator].
In the case of COc1ccc(-n2c(=S)[nH]c3cc(C(=O)NCc4ccccc4)ccc3c2=O)c(OC)c1, the Potency is reported as inconclusive: 39.8 µM [activator, single point].
With CS(=O)(=O)c1ccc(C(=O)OCc2nnc(-c3ccc(Cl)cc3)o2)cc1[N+](=O)[O-] the Potency was inconclusive: 31.6 µM [activator, partial curve, poor fit].
With CCOC(=O)c1c(NC(=O)CSc2nnc(-c3c[nH]c4ccccc34)n2CC)sc2c1CCCC2 the Potency was inconclusive: 22.4 µM [activator, partial curve].
In the case of O=C(NCc1nc2ccccc2[nH]1)C1=C[C@H](C2CCCCC2)C[C@H](OCc2ccc(CO)cc2)O1, the Potency is reported as active: 20 µM.
In the case of COc1cc(CNC(=O)c2cc(-c3cc(Cl)ccc3C)n[nH]2)cc(OC)c1, the Potency is reported as inconclusive: 50.1 µM [activator, single point].
In the case of O=C(Nc1ccc2c(c1)OCO2)c1cc(C2CCCN(C(=O)CCCc3ccccc3)C2)on1 (configuration not stated), the Potency is reported as inconclusive: 10 µM [activator, partial curve].
With Cc1ccc(N(C(=O)c2snc(C(N)=O)c2N)C(C(=O)NCC2CCCO2)c2ccc(C)o2)c(C)c1 (configuration not stated) the Potency was inconclusive: 28.2 µM [activator, partial curve, poor fit].
